Data published in the supplement of paper PMC12217912.
The other results are listed elsewhere or left out. Sequences were assembled here from the parent chain. Inactive controls read about 0.05.

B1: TEV protease; numbered along this chain (parent)
chain: MGESLFKGPRDYNPISSSICHLTNESDGHTTSLYGIGFGPFIITNKHLFRRNNGTLVVQSLHGVFKVKDTTTLQQHLVDGRDMIIIRMPKDFPPFPQKLKFREPQREERICLVTTNFQTKSMSSMVSDTSCTFPSGDGIFWKHWIQTKDGQCGSPLVSTRDGFIVGIHSASNFTNTNNYFTSVPKNFMELLTNQEAQQWVSGWRLNADSVLWGGHKVFMVKPEEPFQPVKEATQL

Variants of: B1
Test: raw area under fraction-flipped curve 0-4 h after induction (AUC4h, not background-subtracted), DNA-recorder readout of cleavage of the substrate (dimensionless); higher = more cleavage of the substrate by the protease variant
Settings: temperature: 34 °C; time window: 0-4 h after rhamnose induction
Method: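 In vivo DNA recorder in E. coli TOP10(DE3) ΔrhaA at 34 °C. Each TEVp single-site mutant (parent TEVp 0) is paired with a single-site variant of the 7-mer TEVs (canonical ENLYFQ|S). The substrate sits between flexible linkers in a Bxb1-sfGFP-TEVs-SsrA fusion, so cleavage stabilises Bxb1 and speeds flipping of a recombination array, read by NGS. The value is the raw area under the fraction-flipped curve over 0-4 h after rhamnose induction (AUC4h), with ≥20 reads per time point. It is not background-subtracted; inactive controls average about 0.047.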
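Note: Bxb1 expression induced with 0.2% (w/v) L-rhamnose at OD600 near 0.5, cultures sampled hourly, flipped fraction per protease–substrate barcode pair counted by paired-end Illumina sequencing.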

Row | Variant | area with substrate ENLYFCS | area with substrate ENLYFDS | area with substrate ENLYFFS | area with substrate ENLYFIS | area with substrate ENLYFKS | area with substrate ENLYFLS | area with substrate ENLYFMS | area with substrate ENLYFNS | area with substrate ENLYFPS | area with substrate ENLYFRS | area with substrate ENLYFTS | area with substrate ENLYFVS | area with substrate ENLYFWS | area with substrate ENLYFYS | area with substrate ENLYFSS | area with substrate ENLYFES | area with substrate ENLYFHS | area with substrate ENLYFGS
1 | MGESLFKGPRDYNPISSSICHLTNESDGHTTSLYGIGFGPFIITNKHLFRRNNGTLVVQSLHGVFKVKDTTTLQQHLVDGRDMIIIRMPKDFPPFPQKLKFREPQREERICLVTTNFQTKSMSSMRSDTSCTFPSGDGIFWKHWIQTKDGQCGSPLVSTRDGFIVGIHSASNFTNTNNYFTSVPKNFMELLTNQEAQQWVSGWRLNADSVLWGGHKVFMVKPEEPFQPVKEATQL [V126R] | 0.0616 | 0.0577 | 0.0678 | 0.062 | 0.064 | 0.0566 | 0.0543 | 0.0404 | 0.0586 | 0.0683 | 0.0611 | 0.0571 | 0.0553 | 0.065 |  |  |  | 
2 | MGESLFKGPRDYNPISSSICHLTNESDGHTTSLYGIGFGPFIITNKHLFRRNNGTLVVQSLHGVFKVKDTTTLQQHLVDGRDMIIIRMPKDFPPFPQKLKFREPQREERICLVTTNFQTKSMSSMVYDTSCTFPSGDGIFWKHWIQTKDGQCGSPLVSTRDGFIVGIHSASNFTNTNNYFTSVPKNFMELLTNQEAQQWVSGWRLNADSVLWGGHKVFMVKPEEPFQPVKEATQL [S127Y] | 0.0633 |  |  | 0.0494 |  | 0.0498 | 0.0584 |  |  | 0.0756 |  |  | 0.0584 |  | 0.06 |  |  | 
3 | MGESLFKGPRDYNPISSSICHLTNESDGHTTSLYGIGFGPFIITNKHLFRRNNGTLVVQSLHGVFKVKDTTTLQQHLVDGRDMIIIRMPKDFPPFPQKLKFREPQREERICLVTTNFQTKSMSSMVSDTCCTFPSGDGIFWKHWIQTKDGQCGSPLVSTRDGFIVGIHSASNFTNTNNYFTSVPKNFMELLTNQEAQQWVSGWRLNADSVLWGGHKVFMVKPEEPFQPVKEATQL [S130C] | 0.0615 | 0.0566 |  |  |  |  | 0.0591 |  |  |  | 0.0638 | 0.0563 |  |  | 0.0584 |  |  | 
4 | MGESLFKGPRDYNPISSSICHLTNESDGHTTSLYGIGFGPFIITNKHLFRRNNGTLVVQSLHGVFKVKDTTTLQQHLVDGRDMIIIRMPKDFPPFPQKLKFREPQREERICLVTTNFQTKSMSSMVSDTSCRFPSGDGIFWKHWIQTKDGQCGSPLVSTRDGFIVGIHSASNFTNTNNYFTSVPKNFMELLTNQEAQQWVSGWRLNADSVLWGGHKVFMVKPEEPFQPVKEATQL [T132R] | 0.0618 |  |  | 0.0262 |  | 0.0528 |  |  | 0.0489 | 0.0509 |  |  | 0.0537 |  |  | 0.0548 | 0.055 | 
5 | MGESLFKGPRDYNPISSSICHLTNESDGHTTSLYGIGFGPFIITNKHLFRRNNGTLVVQSLHGVFKVKDTTTLQQHLVDGRDMIIIRMPKDFPPFPQKLKFREPQREERICLVTTNFQTKSMSSMVSDTSCTFPSGDGIAWKHWIQTKDGQCGSPLVSTRDGFIVGIHSASNFTNTNNYFTSVPKNFMELLTNQEAQQWVSGWRLNADSVLWGGHKVFMVKPEEPFQPVKEATQL [F140A] | 0.0662 |  |  | 0.0668 |  |  |  | 0.0626 | 0.0563 | 0.0637 |  |  |  | 0.0611 |  | 0.0378 |  | 
6 | MGESLFKGPRDYNPISSSICHLTNESDGHTTSLYGIGFGPFIITNKHLFRRNNGTLVVQSLHGVFKVKDTTTLQQHLVDGRDMIIIRMPKDFPPFPQKLKFREPQREERICLVTTNFQTKSMSSMVSDTSCTFPSGDGIFQKHWIQTKDGQCGSPLVSTRDGFIVGIHSASNFTNTNNYFTSVPKNFMELLTNQEAQQWVSGWRLNADSVLWGGHKVFMVKPEEPFQPVKEATQL [W141Q] | 0.0586 |  | 0.0577 | 0.0547 | 0.0324 | 0.0518 | 0.0671 |  | 0.0445 | 0.0469 | 0.0648 |  | 0.0633 | 0.0449 | 0.0511 | 0.0529 |  | 
7 | MGESLFKGPRDYNPISSSICHLTNESDGHTTSLYGIGFGPFIITNKHLFRRNNGTLVVQSLHGVFKVKDTTTLQQHLVDGRDMIIIRMPKDFPPFPQKLKFREPQREERICLVTTNFQTKSMSSMVSDTSCTFPSGDGIFWMHWIQTKDGQCGSPLVSTRDGFIVGIHSASNFTNTNNYFTSVPKNFMELLTNQEAQQWVSGWRLNADSVLWGGHKVFMVKPEEPFQPVKEATQL [K142M] | 0.0602 |  | 0.0691 | 0.0568 | 0.0642 | 0.0627 | 0.064 |  | 0.0583 | 0.0634 | 0.0541 |  |  |  |  | 0.0782 | 0.062 | 
8 | MGESLFKGPRDYNPISSSICHLTNESDGHTTSLYGIGFGPFIITNKHLFRRNNGTLVVQSLHGVFKVKDTTTLQQHLVDGRDMIIIRMPKDFPPFPQKLKFREPQREERICLVTTNFQTKSMSSMVSDTSCTFPSGDGIFWKHWIQTIDGQCGSPLVSTRDGFIVGIHSASNFTNTNNYFTSVPKNFMELLTNQEAQQWVSGWRLNADSVLWGGHKVFMVKPEEPFQPVKEATQL [K148I] | 0.0494 |  |  | 0.0613 | 0.0684 |  |  | 0.0523 |  |  |  |  | 0.0503 | 0.052 |  | 0.0484 | 0.0546 | 
9 | MGESLFKGPRDYNPISSSICHLTNESDGHTTSLYGIGFGPFIITNKHLFRRNNGTLVVQSLHGVFKVKDTTTLQQHLVDGRDMIIIRMPKDFPPFPQKLKFREPQREERICLVTTNFQTKSMSSMVSDTSCTFPSGDGIFWKHWIQTKDGPCGSPLVSTRDGFIVGIHSASNFTNTNNYFTSVPKNFMELLTNQEAQQWVSGWRLNADSVLWGGHKVFMVKPEEPFQPVKEATQL [Q151P] | 0.0598 | 0.0666 |  | 0.0599 | 0.0602 |  | 0.0417 | 0.0536 | 0.0591 |  | 0.0607 |  |  | 0.0603 |  |  |  | 
10 | MGESLFKGPRDYNPISSSICHLTNESDGHTTSLYGIGFGPFIITNKHLFRRNNGTLVVQSLHGVFKVKDTTTLQQHLVDGRDMIIIRMPKDFPPFPQKLKFREPQREERICLVTTNFQTKSMSSMVSDTSCTFPSGDGIFWKHWIQTKDGQCGSCLVSTRDGFIVGIHSASNFTNTNNYFTSVPKNFMELLTNQEAQQWVSGWRLNADSVLWGGHKVFMVKPEEPFQPVKEATQL [P155C] | 0.0624 |  |  | 0.0544 | 0.0549 |  | 0.0631 | 0.0543 | 0.0457 | 0.049 | 0.0494 |  | 0.0409 |  | 0.0473 | 0.0637 | 0.0838 | 0.0266
